From patent US8362216B2, “Method of detection using antibodies that specifically bind hedgehog-derived polypeptides” (The Johns Hopkins University School of Medicine, priority 1994, dated 2013) come the findings set out here.

The assay concerns cell fates in the dorsal cuticle. Nature of the assay: Patterning of larval dorsal cuticle after heat shock. The settings on record: heat shock induction of embryos.

B1: hshh H329A: heat shock-inducible hh with H329A mutation blocking auto-proteolysis (protein)
chain: CGPGRGLGRHRARNLYPLVLKQTIPNLSEYTNSASGPLEGVIRRDSPKFKDLVPNYNRDILFRDEEGTGADRLMSKRCKEKLNVLAYSVMNEWPGIRLLVTESWDEDYHHGQESLHYEGRAVTIATSDRDQSKYGMLARLAVEAGFDWVSYVSRRHIYCSVKSDSSISSHVHGCFTPESTALLESGVRKPLGELSIGDRVLSMTANGQAVYSEVILFMDRNLEQMQNFVQLHTDGGAVLTVTPAALVSVWQPESQKLTFVFADRIEEKNQVLVRDVETGELRPQRVVKVGSVRSKGVVAPLTREGTIVVNSVAASCYAVINSQSLAHWGLAPMRLLSTLEAWLPAKEQLHSSPKVVSSAQQQNGIHWYANALYKVKDYVLPQSWRHD
As for B1, the “Alteration of cell fates in the dorsal cuticle of the larva” value is on record as “unable to alter cell fates in the dorsal cuticle of the larva”.
